Source: PubChem BioAssay AID1508642 (National Center for Advancing Translational Sciences (NCATS), 2021)
In all, about 43,000 compounds went through this assay and about 200 (0.47%) were called active. Inconclusive results (about 12%) are left out. Calls come from the whole dose curve; as a rule, active = well fitted cell-killing curve with a large enough effect; inconclusive = small, poorly fitted or top-dose-only effect, or effect the other way; inactive = flat fitted curve, though single readings scatter. The list shows a part of the results.

Assay: Cell viability qHTS assay in S16 Pmp22-F2sN cells; note: nearly all actives have a fitted effect of over 65% in size
Conditions: S16 Pmp22-F2sN Schwann cells (luciferase reporters placed in the Pmp22 gene) viability, CellTiter-Glo, 24 h; series mostly up to 57.5 µM; activity change, negative = cytotoxicity: at the top concentration
Summary of the method: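 Seed 500-1,000 S16 Pmp22-F2sN cells per well in phenol-red-free DMEM with 10% heat-inactivated FBS; pin-add 23 nL compound; incubate 24 h at 37C; add CellTiter-Glo, wait 15 min protected from light; read luminescence.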
% is set by controls: 0 for no effect and ±100 for the full control effect.

| Structure (SMILES) | activity change, negative = cytotoxicity |
| --- | --- |
| Cc1cc(-c2ccc(S(=O)(=O)Nc3ccc(Br)c(C)c3)s2)on1 | inactive: -15.6% |
| CSc1nnc2[nH]c(=O)cc(C)n12 | inactive: 1.45% |
| Cc1cccc(NC(=O)Cc2ccc(-n3c(C)nc4cccnc43)cc2)c1C | inactive: -12.3% |
| O=c1c2cnn(-c3ccc(F)cc3)c2ncn1Cc1ccc(F)cc1 | inactive: 13% |
| COc1ccc(Cl)cc1NC(=O)Cn1cc2c(n1)CCC(C)C2 (stereo unspecified) | inactive: -2.07% |
| COC(=O)c1cc2oc(C)cc2n1CC(=O)Nc1cc(Cl)ccc1OC | inactive: -1.92% |
| O=C(CSc1ncc(CO)n1Cc1ccc(Cl)cc1)NCc1ccc(F)cc1 | inactive: -3.29% |
| COc1ccc(C(=O)Oc2cc(-c3ccc4c(c3)OCO4)cc(=O)c3c(C)oc(C)c23)cc1 | inactive: 6.51% |
| Cc1cccc(NC(=O)CSc2nc(=O)n(Cc3ccccn3)c3c2CCC3)c1C | inactive: 2.05% |
| COc1ccc(CNC(=O)c2cc3cccc4c3n2CC(C)S4)c(OC)c1 (stereo unspecified) | inactive: -24.2% |
| Cc1ccc(Cl)cc1NC(=O)CSc1nc2c(c(=O)[nH]1)CN(Cc1ccccc1)CC2 | inactive: 6.4% |
| COc1ccc(S(=O)(=O)N2CCN(CC(=O)Nc3ccc(Cl)c(C(F)(F)F)c3)CC2)cc1 | inactive: -19.3% |
| CCOc1ccc(NC(=O)N(C(C)C)C2CCN(C(C)=O)CC2)cc1 | inactive: 3.94% |
| CCOC(=O)c1ccc(NC(=O)CCc2c(C)nc3c(-c4ccc(F)cc4)c(C)nn3c2C)cc1 | inactive: 18.4% |
| Cc1ccc(-c2onc(C)c2C)cc1S(=O)(=O)Nc1ccc(Cl)cn1 | inactive: -4.67% |
| Cc1ccccc1C(=O)Nc1ccc(C(=O)OCc2cc(=O)n3nc(C(C)C)sc3n2)cc1 | inactive: 1.06% |
| COc1ccc(NC(=O)C2Cc3ccccc3N2C(=O)c2ccccc2)cc1OC (stereo unspecified) | inactive: 2.12% |
| COc1ccc(CNC(=O)CSc2ncc(S(=O)(=O)c3ccc(Br)cc3)c(=O)[nH]2)cc1 | inactive: 1.6% |
| COC(=O)c1cccc(Nc2nn3c(=O)c4cc5c(cc4nc3s2)OCO5)c1 | inactive: 0.826% |
| COc1ccc(S(=O)(=O)NCC(c2ccc(N(C)C)cc2)N2CCOCC2)cc1 (stereo unspecified) | inactive: -3.17% |
| CCOc1ccc(CNC(=O)c2sc3ncnc(N(C)C4CCCCC4)c3c2C)cc1 | inactive: -7.87% |
| NC(=O)c1ccccc1NC(=O)Cn1nc(Cc2cccnc2)c2ccccc2c1=O | inactive: 1.33% |
| CCNc1oc(-c2ccc(COc3ccc(Cl)cc3)o2)nc1C#N | inactive: 2.78% |
| CCCCOc1ccc(CNC(=O)Cc2ccc(NC(=O)N3CCSc4ncccc43)cc2)cc1 | inactive: -26% |

| Structure (SMILES) | activity change, negative = cytotoxicity |
| --- | --- |
| Cc1nn(-c2ccc(N3CCOCC3)nn2)c(C)c1CCC(=O)NCc1ccccc1F | inactive: -14.5% |
| O=C(OCc1cccc(C(F)(F)F)c1)c1ccc(-c2nnn(Cc3ccc(F)cc3)n2)cc1 | inactive: 2.82% |
| Cc1nn(C(=O)c2ccccc2)c(C)c1S(=O)(=O)N1CCCCCC1 | inactive: 12.5% |
| CCN(C(=O)c1cn(-c2ccc(OC)cc2)c(=O)c2ccccc12)c1cccc(Cl)c1 | inactive: -3.57% |
| CCn1c(=N)c(C(=O)NC2CCCC2)cc2c(=O)n3ccccc3nc21 | inactive: 1.28% |
| COc1ccc(C)cc1-n1c(-c2ccc(C)cc2)cc2c1CC(C)(C)CC2=O | inactive: 0.792% |
| O=C(Cn1c2ncccc2c(=O)n1-c1ccccc1)Nc1ccc(Cl)cc1C(F)(F)F | inactive: -1.64% |
| CCCCCn1cc2c(c1-c1ccc(Cl)cc1)c(=O)n(C)c(=O)n2C | inactive: 4.18% |
| COc1ccc2c(c1)C=C(C(=O)NCc1cc(Br)ccc1OC)CO2 | inactive: -16.3% |
| Cc1cccc(C(=O)Nc2ccc3oc(-c4ccncc4)nc3c2)c1 | inactive: 17.8% |
| COc1ccccc1NC(=O)c1sc2ncn(Cc3ccccc3Cl)c(=O)c2c1C | inactive: 0.431% |
| CCOC(=O)C1CCCN(S(=O)(=O)c2ccc3[nH]c(=O)oc3c2)C1 (stereo unspecified) | inactive: -22.1% |
| CCc1ccccc1NC(=O)c1sc(-n2nc(C)c(Cc3ccc4c(c3)OCO4)c2C)nc1C | inactive: -0.648% |
| CC(C)N1CCc2nc(SCC(=O)Nc3cccc(F)c3)[nH]c(=O)c2C1 | inactive: -29.8% |
| COc1ccc(-c2nc3scc(CCNC(=O)c4cc(OC)cc(OC)c4)n3n2)cc1 | inactive: -0.896% |
| CCC(C)Sc1c(C(C)C)cnc2c1c(=O)n(C)c(=O)n2C (stereo unspecified) | inactive: 0.0964% |
| COc1ccc(-c2cc(C(F)(F)F)c(C#N)c(SCC(=O)Nc3ccccc3F)n2)cc1 | inactive: 4.73% |
| COc1cccc(CN2C(=O)CN(C3CCCCC3)C(=O)C2c2ccc(OC)c(OC)c2)c1 (stereo unspecified) | inactive: -1.26% |
| COc1ccc2c(c1)c1c(c(=O)n(-c3ccccc3C)c(=O)n1CC(=O)N1CCCC1)n2C | inactive: 6.99% |
| COc1ccc(C2C=C(c3ccccc3)Nc3nc(NC(=O)/C=C/c4ccc(F)cc4)nn32)cc1 (stereo unspecified) | inactive: 3.88% |
| COc1ccccc1C(=O)Nc1ccc(OCc2cc(=O)n3ccc(C)cc3n2)cc1 | inactive: 2.63% |
| COc1ccc(-n2c(/C=C/c3c(C)[nH]c4ccccc34)nc3ccccc3c2=O)cc1 | inactive: 11% |
| COc1cccc(CNc2nccn(-c3ccc(OC)c(OC)c3)c2=O)c1 | inactive: 24% |
| Cc1nn(C)c2c1c(-c1ccccc1)cc(=O)n2Cc1ccc(Cl)cc1 | inactive: -14.4% |

| Structure (SMILES) | activity change, negative = cytotoxicity |
| --- | --- |
| COc1ccc(Cn2ccc3nc(C)c(C(=O)N4CCN(c5ccccc5)CC4)cc3c2=O)cc1 | inactive: -12.3% |
| COc1ccc(C(=O)c2oc3ccccc3c2NC(=O)c2ccc(F)cc2)cc1 | inactive: 3.11% |
| CCOC(=O)c1ccc(NC(=O)c2cn(-c3ccccc3)nc2-c2ccc(Br)cc2)cc1 | inactive: 2.22% |
| Cc1ccc(Nc2sc(C(=O)c3ccccc3)c(N)c2C(=O)NC(C)C)cc1 | inactive: -0.102% |
| CCc1nonc1NC(=O)c1oc2cc(C)c(Cl)cc2c1C | inactive: 3.48% |
| COc1ccc(NC(=O)CSc2oc(-c3cccs3)nc2S(=O)(=O)c2ccc(Br)cc2)c(OC)c1 | inactive: 0.151% |
| CCOc1ccc(C(=O)c2cn(Cc3ccccc3OC)c3cc4c(cc3c2=O)OCCO4)cc1 | inactive: 10.7% |
| CCCCN(CC)CCNC(=O)c1cn(CCOC)c(=O)c2c1c1ccccc1n2C | inactive: -26.8% |
| CCC(=O)N1CCc2cc(S(=O)(=O)CCC(=O)Nc3ccc(Cl)c(C(F)(F)F)c3)ccc21 | inactive: -15.7% |
| COc1ccccc1N1CCN(C(=O)c2sc3nc4n(c(=O)c3c2C)CCC4)CC1 | inactive: 3.65% |
| CCOC(=O)c1ccc(NC(=O)CSc2ccc(-c3sc(C)nc3C)nn2)cc1 | inactive: 0.395% |
| O=C(NC1CC(=O)N(c2cccc(F)c2)C1)c1ccc(S(=O)(=O)N2CCOCC2)cc1 (stereo unspecified) | inactive: 10.9% |
| Cc1ccc(NC(=O)Cn2c(=O)oc3ccccc32)cc1Cl | inactive: 3.26% |
| COc1ccccc1CN1COc2ccc3c(C)cc(=O)oc3c2C1 | inactive: 15% |
| O=C(NCc1ccccc1Cl)C1CCC(CNS(=O)(=O)c2ccc(Cl)cc2)CC1 (stereo unspecified) | inactive: 29.2% |
| COc1cccc(NC(=O)N2CCC(n3c(C)nc4cccnc43)CC2)c1 | inactive: -1.98% |
| COc1cccc(Cn2c(=O)n(-c3ccc(C)c(F)c3)c(=O)c3sc4ccccc4c32)c1 | inactive: 21.5% |
| Cc1ccc2oc(C(=O)N(Cc3cccc(F)c3)C3CCS(=O)(=O)C3)c(C)c2c1 (stereo unspecified) | inactive: 4.07% |
| COc1ccc(N2CCN(C(=O)c3cc(S(=O)(=O)N4CCCCCC4)cn3C)CC2)cc1 | inactive: 24.5% |
| O=C(COC(=O)C(Cc1c[nH]c2ccccc12)NC(=O)c1ccc(Br)cc1)c1ccc(Cl)cc1 (stereo unspecified) | inactive: 4.13% |
| Cc1ccc(N(CC(C)C)S(=O)(=O)c2nnc(NC(=O)c3ccco3)s2)cc1 | inactive: -0.873% |
| Cc1ccc(-c2cc(C(F)(F)F)n3nc(-c4ccc(Cl)cc4)cc3n2)cc1 | inactive: 2.57% |
| COc1ccc(CNC(=O)C2CCN(Cc3nc(-c4ccc(OC)c(OC)c4)oc3C)CC2)cc1 | inactive: 9.77% |
| COc1cccc(OC)c1C(=O)Nc1nnc(C)s1 | inactive: 8.16% |

| Structure (SMILES) | activity change, negative = cytotoxicity |
| --- | --- |
| CSc1cccc(-c2nnc(NC(=O)c3ccc4c(c3)OCCO4)o2)c1 | inactive: -17% |
| CC(C)CC(=O)NCc1nc2cccnc2n1Cc1ccccc1 | inactive: 11.2% |
| CCOC(=O)c1cc(-c2ccccc2)n(CC(=O)Nc2ccc(OC)cc2OC)c1C | inactive: -8.12% |
| COc1ccc(-c2ccc(NS(=O)(=O)c3cccc(Cl)c3)cc2)nn1 | inactive: 4.24% |
| COc1cccc(CNC(=O)CSc2c3c(nc4ccc(Cl)cc24)CCCC3)c1OC | inactive: 23.6% |
| CCOC(=O)c1c(C)[nH]c(C)c1S(=O)(=O)N1CCCC(C(=O)Nc2ccc(OC)c(Cl)c2)C1 (stereo unspecified) | inactive: 29.3% |
| O=C(Cn1ncc2c3ccccc3n(Cc3ccccc3F)c2c1=O)NCCc1ccc(Cl)cc1 | inactive: 7.11% |
| Cc1ccccc1Nc1nnc(-c2ccc(C)c(S(=O)(=O)N3CCOCC3)c2)c2ccccc12 | inactive: 7.16% |
| COc1ccc(CN2COc3ccc4c(-c5ccccc5)cc(=O)oc4c3C2)cc1 | inactive: 15.6% |
| Cc1cccc(N2CCN(C(=O)C3CCN(S(=O)(=O)c4cccs4)CC3)CC2)c1C | inactive: -0.811% |
| COc1ccc(OC)c(NC(=O)Cn2cnc3c(oc4ccccc43)c2=O)c1 | inactive: -3.17% |
| CC1=C(C(=O)Nc2ccc(C)cc2C)C(c2ccc(Cl)cc2)n2nc(C(=O)OC(C)C)nc2N1 (stereo unspecified) | inactive: -3.42% |
| O=C(Cn1cnc(S(=O)(=O)N2CCCC2)c1)Nc1ccc(OC(F)(F)F)cc1 | inactive: 27.5% |
| CCc1ccc(NC(=O)c2cc3sc(Cl)cc3n2C)cc1 | inactive: 1.45% |
| COc1cccc(C(=O)Nc2c(C(=O)NC(C)(C)C)oc3ccccc23)c1 | inactive: 14.9% |
| Cc1ccc(CCNC(=O)Cn2c(-c3cccs3)cc3cc(F)ccc32)cc1 | inactive: 12.9% |
| CN(C)c1ccc(CNC(=O)CN(C)S(=O)(=O)c2ccc3c(c2)c(=O)n(C)c(=O)n3C)cc1 | inactive: 14.6% |
| Cc1ccc(CNC(=O)Cn2ccn(-c3ccc(C)c(C)c3)c(=O)c2=O)cc1 | inactive: -8.09% |
| COc1ccc(CC(=O)NCc2ccc3c(c2)CCN3C(=O)c2ccc(C)cc2)cc1OC | inactive: -24.8% |
| O=C(Cn1ncc2c(=O)oc3ccccc3c21)NCc1ccccc1Cl | inactive: 14.2% |
| CCc1cccc(NC(=O)Cn2c(=O)n(CCc3ccc(OC)c(OC)c3)c(=O)c3ccccc32)c1 | inactive: 13.8% |
| CCCCOc1ccc(S(=O)(=O)N2CCN(c3ccccc3OCC)CC2)cc1 | inactive: -0.799% |
| COc1ccc(Cl)cc1NC(=O)CN(C)S(=O)(=O)c1ccc(Br)s1 | inactive: -24.9% |
| O=C(NCC(c1ccccc1)c1ccccc1)c1nn(-c2ccccc2Cl)nc1CO | inactive: -10.8% |
